The source of these data is patent US20170079281A1, “CITRUS-BASED ANTIMICROBIAL COMPOSITION” (priority 2015, published 2017).

A value given as a limit tells only on which side of the number the result lay.

This assay relates to E. coli O157:H7. Description: E. coli O157:H7 suspended in dirty water or on spinach. Particulars: 20 ppm NaOCl.

Take `OCl` [NaOCl, Sodium hypochlorite]: the “log reduction against E. coli O157:H7” value (pH 3.1, study #1 dirty water, <30 seconds, 90 seconds & 5 minutes) is over 5 log; the “log reduction against E. coli O157:H7” value (pH 3.1, study #2 washed spinach, <30 seconds, 90 seconds & 5 minutes) worked out at 1 log; the “log reduction against E. coli O157:H7” value (pH 3.1, study #3 unwashed spinach, <30 seconds, 90 seconds & 5 minutes) is recorded as “No log reduction”; the “log reduction against E. coli O157:H7” value (pH 6.5, study #1 dirty water, 90 seconds & 5 minutes) is 2.5 log; the “log reduction against E. coli O157:H7” value (pH 6.5, study #1 dirty water, <30 seconds) is “No log reduction”; the “log reduction against E. coli O157:H7” value (pH 6.5, study #2 washed spinach, 5 minutes) stood at 1 log. Moreover, the “log reduction against E. coli O157:H7” value reads like this: (pH 6.5, study #2 washed spinach, <30 seconds & 90 seconds) “No log reduction”; (pH 6.5, study #3 unwashed spinach, <30 seconds, 90 seconds & 5 minutes) “No log reduction”.
